The supplement of paper PMC8728848
This is one part of the list.

How the values were obtained:
Experiment in all cases: glycan array binding signal (z-score within array); higher = stronger binding
Conditions in all cases: glycan notation: IUPAC condensed, linker removed
[1] = molecular target: Neu5Ac(a2-6)Gal(b1-4)GlcNAc(b1-2)Man(a1-6)[Gal(b1-4)GlcNAc(b1-2)Man(a1-3)]Man(b1-4)GlcNAc(b1-4)GlcNAc
Method in brief: (§1)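 Glycan array data came from 3228 arrays in the Consortium for Functional Glycomics database, and only arrays with an available protein sequence were kept. Glycan names were put into IUPAC-condensed notation, and columns mapping to the same glycan were averaged. The binding signal is a within-array Z-score, averaged across arrays of one protein sequence run at different concentrations or buffers and across linkers. A negative Z-score can be read as non-binding.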

[2] = molecular target: Neu5Ac(a2-6)Gal(b1-4)GlcNAc(b1-2)Man(a1-6)[GlcNAc(b1-2)Man(a1-3)]Man(b1-4)GlcNAc(b1-4)GlcNAc
Method in brief: as §1

[3] = molecular target: Neu5Ac(a2-6)Gal(b1-4)GlcNAc(b1-2)Man(a1-6)[Man(a1-3)]Man(b1-4)GlcNAc(b1-4)GlcNAc
Method in brief: as §1

[4] = molecular target: Neu5Ac(a2-6)Gal(b1-4)GlcNAc(b1-2)[Neu5Ac(a2-6)Gal(b1-4)GlcNAc(b1-4)]Man(a1-3)[GlcNAc(b1-4)][Neu5Ac(a2-6)Gal(b1-4)GlcNAc(b1-2)[Neu5Ac(a2-6)Gal(b1-4)GlcNAc(b1-6)]Man(a1-6)]Man(b1-4)GlcNAc(b1-4)GlcNAc
Method in brief: as §1

[5] = molecular target: Neu5Ac(a2-6)Gal(b1-4)GlcNAc(b1-2)[Neu5Ac(a2-6)Gal(b1-4)GlcNAc(b1-4)]Man(a1-3)[GlcNAc(b1-4)][Neu5Ac(a2-6)Gal(b1-4)GlcNAc(b1-4)Man(a1-6)]Man(b1-4)GlcNAc(b1-4)GlcNAc
Method in brief: as §1

[6] = molecular target: Neu5Ac(a2-6)Gal(b1-4)GlcNAc(b1-2)[Neu5Ac(a2-6)Gal(b1-4)GlcNAc(b1-6)]Man(a1-6)[Neu5Ac(a2-6)Gal(b1-4)GlcNAc(b1-2)Man(a1-3)][GlcNAc(b1-4)]Man(b1-4)GlcNAc(b1-4)GlcNAc
Method in brief: as §1

[7] = molecular target: Neu5Ac(a2-6)Gal(b1-4)GlcNAc(b1-3)Gal(b1-3)GlcNAc
Method in brief: as §1

[8] = molecular target: Neu5Ac(a2-6)Gal(b1-4)GlcNAc(b1-3)Gal(b1-4)GlcNAc
Method in brief: as §1

[9] = molecular target: Neu5Ac(a2-6)Gal(b1-4)GlcNAc(b1-3)Gal(b1-4)GlcNAc(b1-2)Man(a1-3)[Neu5Ac(a2-6)Gal(b1-4)GlcNAc(b1-3)Gal(b1-4)GlcNAc(b1-2)Man(a1-6)]GalNAc
Method in brief: as §1

[10] = molecular target: Neu5Ac(a2-6)Gal(b1-4)GlcNAc(b1-3)Gal(b1-4)GlcNAc(b1-3)Gal(b1-4)GlcNAc
Method in brief: as §1

[11] = molecular target: Neu5Ac(a2-6)Gal(b1-4)GlcNAc(b1-3)Gal(b1-4)GlcNAc(b1-3)Gal(b1-4)GlcNAc(b1-2)Man(a1-3)[Neu5Ac(a2-6)Gal(b1-4)GlcNAc(b1-3)Gal(b1-4)GlcNAc(b1-3)Gal(b1-4)GlcNAc(b1-2)Man(a1-6)]GalNAc
Method in brief: as §1

[12] = molecular target: Neu5Ac(a2-6)Gal(b1-4)GlcNAc(b1-3)Gal(b1-4)GlcNAc(b1-3)GalNAc
Method in brief: as §1

[13] = molecular target: Neu5Ac(a2-6)Gal(b1-4)GlcNAc(b1-3)Gal(b1-4)GlcNAc(b1-3)[Neu5Ac(a2-6)Gal(b1-4)GlcNAc(b1-3)Gal(b1-4)GlcNAc(b1-6)]GalNAc
Method in brief: as §1

[14] = molecular target: Neu5Ac(a2-6)Gal(b1-4)GlcNAc(b1-3)Gal(b1-4)GlcNAc(b1-6)[Gal(b1-3)]GalNAc
Method in brief: as §1

[15] = molecular target: Neu5Ac(a2-6)Gal(b1-4)GlcNAc(b1-3)Gal(b1-4)[Fuc(a1-3)]GlcNAc(b1-3)Gal(b1-4)[Fuc(a1-3)]GlcNAc
Method in brief: as §1

[16] = molecular target: Neu5Ac(a2-6)Gal(b1-4)GlcNAc(b1-3)GalNAc
Method in brief: as §1

[17] = molecular target: Neu5Ac(a2-6)Gal(b1-4)GlcNAc(b1-3)[Neu5Ac(a2-6)Gal(b1-4)GlcNAc(b1-6)]GalNAc
Method in brief: as §1

[18] = molecular target: Neu5Ac(a2-6)Gal(b1-4)GlcNAc(b1-6)GalNAc
Method in brief: as §1

[19] = molecular target: Neu5Ac(a2-6)Gal(b1-4)GlcNAc(b1-6)[Gal(b1-3)GlcNAc(b1-3)]Gal(b1-4)Glc
Method in brief: as §1

[20] = molecular target: Neu5Ac(a2-6)Gal(b1-4)GlcNAc(b1-6)[Gal(b1-3)]GalNAc
Method in brief: as §1

[21] = molecular target: Neu5Ac(a2-6)Gal(b1-4)GlcNAc6S
Method in brief: as §1

Neu5Ac(a2-6)GalNAc = molecular target: Neu5Ac(a2-6)GalNAc
Method in brief: as §1

[22] = molecular target: Neu5Ac(a2-6)GalNAc(b1-4)GlcNAc
Method in brief: as §1

[23] = molecular target: Neu5Ac(a2-6)GalNAc(b1-4)GlcNAc6S
Method in brief: as §1

[24] = molecular target: Neu5Ac(a2-6)GlcNAc(b1-4)GlcNAc
Method in brief: as §1

[25] = molecular target: Neu5Ac(a2-6)GlcNAc(b1-4)GlcNAc(b1-4)GlcNAc
Method in brief: as §1

Neu5Ac(a2-8)Neu5Ac = molecular target: Neu5Ac(a2-8)Neu5Ac
Method in brief: as §1

[26] = molecular target: Neu5Ac(a2-8)Neu5Ac(a2-3)Gal(b1-3)GalNAc(b1-4)[Neu5Ac(a2-3)]Gal(b1-4)Glc
Method in brief: as §1

[27] = molecular target: Neu5Ac(a2-8)Neu5Ac(a2-3)Gal(b1-3)GalNAc(b1-4)[Neu5Ac(a2-8)Neu5Ac(a2-3)]Gal(b1-4)Glc
Method in brief: as §1

[28] = molecular target: Neu5Ac(a2-8)Neu5Ac(a2-3)Gal(b1-4)Glc
Method in brief: as §1

[29] = molecular target: Neu5Ac(a2-8)Neu5Ac(a2-3)Gal(b1-4)GlcNAc
Method in brief: as §1

[30] = molecular target: Neu5Ac(a2-8)Neu5Ac(a2-3)[Gal(b1-3)GalNAc(b1-4)]Gal(b1-4)Glc
Method in brief: as §1

[31] = molecular target: Neu5Ac(a2-8)Neu5Ac(a2-3)[GalNAc(b1-4)]Gal(b1-4)Glc
Method in brief: as §1

[32] = molecular target: Neu5Ac(a2-8)Neu5Ac(a2-8)Neu5Ac
Method in brief: as §1

[33] = molecular target: Neu5Ac(a2-8)Neu5Ac(a2-8)Neu5Ac(a2-3)Gal(b1-4)Glc
Method in brief: as §1

[34] = molecular target: Neu5Ac(a2-8)Neu5Ac(a2-8)Neu5Ac(a2-3)[Gal(b1-3)GalNAc(b1-4)]Gal(b1-4)Glc
Method in brief: as §1

[35] = molecular target: Neu5Ac(a2-8)Neu5Ac(a2-8)Neu5Ac(a2-3)[GalNAc(b1-4)]Gal(b1-4)Glc
Method in brief: as §1

[36] = molecular target: Neu5Ac(a2-8)Neu5Ac(a2-8)Neu5Ac(a2-8)Neu5Ac(a2-3)[GalNAc(b1-4)]Gal(b1-4)Glc
Method in brief: as §1

B1: Gal 4 (Mus musculus), P56470 (protein)
chain: MAYVPAPGYQPTYNPTLPYYQPIPGGLNVGMSVYIQGVASEHMKRFFVNFVVGQDPGSDVAFHFNPRFDGWDKVVFNTLQGGKWGSEERKRSMPFKKGAAFELVFIVLAEHYKVVVNGNPFYEYGHRLPLQMVTHLQVDGDLQLQSINFIGGQPLRPQGPPMMPPYPGPGHCHQQLNSLPTMEGPPTFNPPVPYFGRLQGGLTARRTIIIKGYVPPTGKSFAINFKVGSSGDIALHINPRMGNGTVVRNSLLNGSWGSEEKKITHNPFGPGQFFDLSIRCGLDRFKVYANGQHLFDFAHRLSAFQRVDTLEIQGDVTLSYVQI
[1]
  glycan array binding signal (z-score): -0.196
[2]
  glycan array binding signal (z-score): -0.222
[3]
  glycan array binding signal (z-score): -0.217
[4]
  glycan array binding signal (z-score): -0.271
[5]
  glycan array binding signal (z-score): -0.308
[6]
  glycan array binding signal (z-score): -0.286
[7]
  glycan array binding signal (z-score): 0.457
[8]
  glycan array binding signal (z-score): -0.165
[9]
  glycan array binding signal (z-score): -0.269
[10]
  glycan array binding signal (z-score): -0.073
[11]
  glycan array binding signal (z-score): -0.294
[12]
  glycan array binding signal (z-score): -0.155
[13]
  glycan array binding signal (z-score): -0.252
[14]
  glycan array binding signal (z-score): -0.027
[15]
  glycan array binding signal (z-score): -0.213
[16]
  glycan array binding signal (z-score): -0.248
[17]
  glycan array binding signal (z-score): -0.251
[18]
  glycan array binding signal (z-score): -0.265
[19]
  glycan array binding signal (z-score): -0.295
[20]
  glycan array binding signal (z-score): -0.281
[21]
  glycan array binding signal (z-score): -0.212
Neu5Ac(a2-6)GalNAc
  glycan array binding signal (z-score): -0.23
[22]
  glycan array binding signal (z-score): -0.241
[23]
  glycan array binding signal (z-score): -0.293
[24]
  glycan array binding signal (z-score): -0.239
[25]
  glycan array binding signal (z-score): -0.227
Neu5Ac(a2-8)Neu5Ac
  glycan array binding signal (z-score): -0.226
[26]
  glycan array binding signal (z-score): -0.247
[27]
  glycan array binding signal (z-score): -0.26
[28]
  glycan array binding signal (z-score): -0.211
[29]
  glycan array binding signal (z-score): -0.224
[30]
  glycan array binding signal (z-score): -0.238
[31]
  glycan array binding signal (z-score): -0.238
[32]
  glycan array binding signal (z-score): -0.246
[33]
  glycan array binding signal (z-score): -0.237
[34]
  glycan array binding signal (z-score): -0.315
[35]
  glycan array binding signal (z-score): -0.227
[36]
  glycan array binding signal (z-score): -0.221
